# Test results from PubChem BioAssay AID463173 (ICCB-Longwood Screening Facility, Harvard Medical School, 2010).
# The whole screen tested about 52,000 compounds, of which about 4,300 (8.3%) were called active. Cut-off read from the data, not from the text of the source: active = survival mostly below about 52% (no sharp cut-off); inactive = mostly above about 56%. The list shows a part of the results.
# System: DeltatarO mutant
# Experiment: S. aureus survival, RN4220 and DeltatarO strains – OD600, teichoic acid synthesis inhibitors, primary screen (AID 463173)
# Settings: S. aureus RN4220 wild type/DeltatarO growth, OD600, 18 h, active compounds read low, screened at 18.75 µg/mL (by protocol)
row,SMILES,survival
1,CCOC(=O)c1c(C)[nH]c(CCC(=O)Nc2c(Cl)cc(OC)cc2OC)c1C,inactive: 90%
2,Cc1cc(C)c(NC(=O)Cn2c(=O)n(Cc3ccc4c(c3)OCO4)c(=O)c3ccccc32)c(C)c1,inactive: 95%
3,CCC1=Nc2cc(C(=O)NCc3ccccc3Cl)ccc2Sc2ccc(C)cc21,inactive: 69%
4,Cc1nnc(NCc2ccccc2)c2ccccc12,inactive: 98%
5,O=S1(=O)C=C(Sc2nc3ccccc3s2)c2ccccc21,active: 4%
6,CCOC(=O)c1ccc(NC(=O)C(CC)Sc2nnc3c4ccccc4n(C)c3n2)cc1 (stereo not drawn),inactive: 143%
7,Cc1ccc(C)c(NC(=O)Cn2nnc(C(=O)NCCc3ccccc3)c2N)c1,inactive: 92%
8,Cc1ccc(Nc2c(-c3ccsc3)nc3cccc(C)n23)cc1,active: 25%
9,COc1ccc(Cl)cc1NC(=O)CSC1=Nc2ccccc2C2=NC(CC(=O)NC3CCCCC3)C(=O)N12 (stereo not drawn),inactive: 90%
10,CCOC(=O)CNC(=O)c1ccc(-c2nn(C)c(=O)c3ccccc23)cc1,inactive: 69%
11,CCc1ccc(NCc2cc3ccc(OC)cc3n(CC(=O)Nc3ccc(C(C)C)cc3)c2=O)cc1,inactive: 87%
12,CCOC(=O)c1ccc2nsnc2c1,inactive: 93%
13,Cc1c(NC(=O)CC(C)C)cccc1-c1nc2cccnc2s1,inactive: 107%
14,O=C(CSc1cn(CCNC(=O)c2ccccc2F)c2ccccc12)Nc1ccccc1F,inactive: 80%
15,COc1cccc(-n2c(SCC(=O)Nc3cccc(Cl)c3)nc3c(oc4ccccc43)c2=O)c1,inactive: 85%
16,COc1ccc(/C=C\C(=O)NC2CC(=O)N(c3ccc(F)cc3)C2)cc1OC (stereo not drawn),inactive: 77%
17,CCOc1ccccc1CNC(=O)c1ccc(-c2nc(CSc3ccc(C)cc3)c(C)o2)cc1,inactive: 72%
18,O=C(NCc1ccc(F)cc1)C1CCCN(c2ncnc3onc(-c4ccc(F)cc4)c23)C1 (stereo not drawn),inactive: 107%
19,COc1ccc(-n2c(=O)c3c(C)c(C)sc3n(CC(=O)NCc3ccc(C)cc3)c2=O)c(OC)c1,inactive: 78%
20,CS(=O)(=O)c1oc(-c2ccc(F)cc2)nc1S(=O)(=O)c1ccc(Cl)cc1,active: -5%
21,O=C(CSc1nc2c(sc3ccccc32)c(=O)n1CCCC(=O)NC1CCCC1)Nc1ccc(F)cc1,inactive: 85%
22,CCOC(=O)C1CCN(C(=O)CN2c3ccc(C(C)C)cc3-c3ccccc3S2(=O)=O)CC1,inactive: 101%

row,SMILES,survival
1,CCOc1ccc(OC(=O)c2cn(-c3cccc(OC)c3)c(=O)c3ccccc23)cc1,inactive: 74%
2,COc1cc(C2NC(=O)N(C)C3=C2C(=O)N(c2cccc(Cl)c2)C3)ccc1O (stereo not drawn),inactive: 77%
3,CCOC(=O)c1c(NC(C)=O)c2c3c(sc2n1Cc1ccc(Cl)cc1)CCCC3,inactive: 95%
4,Cc1ccc(NC(=O)c2ccc3oc(=O)c(S(=O)(=O)c4ccccc4)cc3c2)cc1C,inactive: 85%
5,Cc1ccc(NC(=O)Cn2nnc(-c3nc(-c4ccncc4)no3)c2N)c(C)c1,inactive: 92%
6,CC(SCc1ccccc1)C(=O)NCc1ccccn1 (stereo not drawn),inactive: 77%
7,COc1ccccc1NC(=O)C1=C(C)Nc2nc(SCc3ccc(Cl)cc3)nn2C1c1ccccc1Cl (stereo not drawn),inactive: 78%
8,Cc1cccc(C)c1NC(=O)CSc1nc2ncccc2o1,inactive: 79%
9,Cc1ccc(S(=O)(=O)NCC(c2ccc(N(C)C)cc2)N2CCc3ccccc32)cc1C (stereo not drawn),inactive: 131%
10,CC(=O)N1CCc2cc(CNC(=O)Nc3cc(Cl)ccc3C)ccc21,inactive: 86%
11,COc1ccc(Cn2c(CCC(=O)Nc3cccc(OC)c3)nc3cccnc32)cc1,inactive: 68%
12,CCc1ccc(CNC(=O)C2CCN(c3nc4ccccc4nc3C(F)(F)F)CC2)cc1,inactive: 74%
13,COC(=O)Cc1c(C)c2cc3c(c(C)c2oc1=O)OCN(CCc1ccccc1F)C3,inactive: 47%
14,CCN1C(=O)c2ccccc2Sc2ccc(NC(=O)Nc3ccccc3OC)cc21,inactive: 61%
15,Cc1ccc(NC(=O)c2c(NC(=O)Cc3ccccc3)sc3c2CCC3)cc1,active: 24%
16,O=C(O)c1ccc(NC(=O)C2C3C=CC(C3)C2C(=O)O)cc1 (stereo not drawn),inactive: 95%
17,COc1ccccc1CNC(=O)CCC1N=C2c3ccccc3N=C(SCC(N)=O)N2C1=O (stereo not drawn),inactive: 95%
18,CC1CCCCN1CCCNC(=O)c1[nH]c2ccccc2c1Sc1ccc(Cl)cc1 (stereo not drawn),active: 1%
19,Fc1ccccc1-n1ncc2c1ncn1nc(-c3ccccc3Cl)nc21,inactive: 79%
20,Cc1cccc(CNC(=O)C(=O)Nc2ccccc2C)c1,inactive: 70%
21,Cc1ccc(CNC(=O)c2ccc(CSCc3ccccc3Cl)o2)cc1,inactive: 58%
22,Cc1cc2c(cc1S(=O)(=O)CCC(=O)N1CCCC(C)C1)OCC(=O)N2 (stereo not drawn),inactive: 76%

row,SMILES,survival
1,CCCCN(CCCNC(=O)c1ccc(Sc2ccc(Cl)cc2)c(NC(C)=O)c1)c1ccccc1,inactive: 89%
2,Cc1ccc(NC(=O)CSC2=Nc3ccccc3C3=NC(Cc4ccccc4)C(=O)N23)cc1C (stereo not drawn),inactive: 74%
3,C=CCc1c(NCCO)nc(C)[nH]c1=O,inactive: 73%
4,Cc1ccc(-n2ncc(C(=O)NCCN3CCOCC3)c2C2CCN(C(=O)OC(C)(C)C)CC2)c(C)c1,active: 37%
5,COCCn1c(CCC(=O)Nc2ccc(C)c(Cl)c2)nc2cccnc21,inactive: 84%
6,Cc1c(Cl)cccc1NC(=O)Cn1cc(C(=O)C2CCCCC2)c2ccccc21,inactive: 94%
7,CCSc1ncc(Cl)c(C(=O)Nc2ccc(S(=O)(=O)N3CCC(C)CC3)cc2)n1,inactive: 68%
8,Clc1ccc2nc(NCc3ccccc3)c3nncn3c2c1,inactive: 96%
9,COc1ccc2cc(-c3nc(Cl)c4c5c(sc4n3)CCCC5)c(=O)oc2c1,inactive: 76%
10,COc1ccc(NC(=O)Cn2c(=O)n(Cc3ccco3)c(=O)c3cc(OC)c(OC)cc32)cc1,inactive: 80%
11,CN(C)c1ccc(-c2nc3cnccn3c2Nc2cccc(C(F)(F)F)c2)cc1,inactive: 83%
12,COc1cccc(CNc2nccn(-c3cc(C)cc(C)c3)c2=O)c1,inactive: 91%
13,CCNS(=O)(=O)c1ccc(S(=O)(=O)N(Cc2ccccn2)C2CCCCC2)cc1,inactive: 76%
14,CC(NC(=O)c1c2c(nc3ccccc13)C(=O)N(C1CCCCC1)C2)c1ccccc1 (stereo not drawn),inactive: 69%
15,Cc1ccc(CNC(=O)Cn2c(=O)ccc3cc(S(=O)(=O)N4CCCC4)ccc32)cc1,inactive: 92%
16,CCOc1ccc(S(=O)(=O)c2cn(C)c3ccccc3c2=O)cc1,inactive: 97%
17,O=C1C(Cc2ccccc2)S/C(=N/N=C/c2ccco2)N1c1ccccc1 (stereo not drawn),inactive: 91%
18,Cc1ccc(Cc2cnc(NC(=O)C3Cc4ccc(C)cc4C(=O)O3)s2)cc1 (stereo not drawn),inactive: 91%
19,COC(=O)c1cnn(-c2ccc(C(=O)Nc3ccc(OC(F)(F)F)cc3)cc2)c1N,active: 25%
20,CCc1ccc(NC(=O)CN2CCSc3ccc(S(=O)(=O)N4CCCC4)cc32)cc1,active: -4%
21,COc1ccc(C(CNC(=O)c2cccc([N+](=O)[O-])c2)N2CCOCC2)cc1 (stereo not drawn),inactive: 76%
22,COc1ccc(CCNc2nc(-c3ccc(F)cc3)cc(C(F)(F)F)n2)cc1OC,inactive: 109%

row,SMILES,survival
1,Cc1nn(CCCC(=O)NCc2cccc(Cl)c2)c(=O)c2c1sc1ccccc12,inactive: 78%
2,Cc1nnc(NC(=O)CSc2nnc3c(n2)[nH]c2ccccc23)s1,inactive: 61%
3,Cc1cccc(N2CCN(CCCNC(=O)c3sc4ncccc4c3-n3cccc3)CC2C)c1 (stereo not drawn),inactive: 105%
4,CCOC(=O)c1ccccc1NC(=O)c1ccco1,inactive: 97%
5,O=c1n(Cc2ccc(F)cc2)nc2n1-c1cc(Cl)ccc1OC2,inactive: 82%
6,Cc1ccc(F)cc1NC(=O)c1ccc(Cn2nc(N3CCN(c4ccccc4)CC3)ccc2=O)o1,inactive: 117%
7,CCN(C(=O)c1cccn(Cc2ccccc2C)c1=O)c1ccccc1,inactive: 89%
8,CN(C)c1ccc(NC(=O)CN2C(=O)c3ccccc3Sc3ccc(C(=O)N4CCCC4)cc32)cc1,active: -2%
9,Cc1ccc(-c2nc(SCC(=O)N3CCc4ccccc43)c3c(=O)n(C)c(=O)n(C)c3n2)cc1,inactive: 76%
10,COCCCNC(=O)c1c(NC(=O)c2cc(=O)c3ccccc3o2)sc2c1CCCC2,inactive: 110%
11,Cc1ccc(N2CCN(c3c(CN4CCCC4)c(=O)oc4ccccc34)CC2)c(C)c1,inactive: 67%
12,O=C(NCc1ccccc1)c1ccc2c(c1)N(Cc1cccc(Cl)c1)C(=O)c1ccccc1S2(=O)=O,inactive: 93%
13,CCOC(=O)C1CCC(CN(Cc2c(Cl)cccc2Cl)S(=O)(=O)c2ccc(Cl)cc2)CC1 (stereo not drawn),inactive: 81%
14,CCn1ccc2cc(S(=O)(=O)N3CCC(C(=O)NCc4ccc(OC)cc4)CC3)ccc21,active: 20%
15,Cc1ccc2nc(-c3ccc(Cl)c(NC(=O)c4cccc([N+](=O)[O-])c4C)c3)oc2c1,inactive: 126%
16,Cc1ccccc1CN1C(=O)c2ccccc2Sc2ccc(C(=O)OCc3ccco3)cc21,inactive: 85%
17,CCOc1ccccc1CNC(=O)c1cnc2c(-c3ccc(OCC)c(OCC)c3)c(C)nn2c1C,inactive: 82%
18,COc1ccc(NC(=O)C2CCN(c3nc4ccccc4nc3C(F)(F)F)CC2)cc1,inactive: 124%
19,Cc1cc(NC(=O)C2CCCCC2)no1,inactive: 95%
20,COc1ccc(-c2cn3nc(N4CCC(C(=O)Nc5ccc(Cl)cc5C)CC4)sc3n2)cc1,inactive: 71%
21,Cc1oc(-c2ccc(C(=O)NCCc3ccc(Cl)cc3)cc2)nc1CSc1ccccc1,inactive: 83%
22,COc1ccc(-n2nc(C(=O)NCCc3ccc(OC)c(OC)c3)c3c4ccccc4n(C)c3c2=O)cc1Cl,inactive: 95%
